In the antibiotic and cytotoxicity screens of Wong et al. (2023):
This is one part of the list.

Legend:
HSkMC = human skeletal muscle cells; experiment: cytotoxicity call (relative viability < 0.9); conditions: 10 µM
HepG2 = experiment: cytotoxicity call (relative viability < 0.9); conditions: 10 µM
S. aureus RN4220 = experiment: growth inhibition call (relative growth <= 0.2); conditions: 50 µM

SMILES	cytotoxicity call (HSkMC)	cytotoxicity call (HepG2)	growth inhibition call (S. aureus RN4220)
COCC(=O)N1CC[C@]2(CC1)CN([C@H](CO)c1c2c2ccc(cc2n1C)OC)C(=O)Cc1ccccc1	inactive	active	inactive
N#CC1(N[C@@H](Cc2ccccc2)c2ccccc2)CCCCCC1	inactive	inactive	inactive
CC(C)CC#Cc1ccc2c(c1)O[C@H](CN(C)C(=O)c1ccccn1)[C@@H](C)CN([C@@H](C)CO)S2(=O)=O	inactive	inactive	inactive
C[C@@H]1CN([C@@H](C)CO)C(=O)c2cc(NC(=O)Nc3ccc(F)cc3)ccc2O[C@@H](C)CCCCO[C@H]1CN(C)C(=O)Nc1cccc2ccccc12	inactive	inactive	inactive
C[C@H](CO)N1C[C@H](C)[C@H](CN(C)S(=O)(=O)c2cccc(F)c2)Oc2ncc(C#Cc3cccc(F)c3)cc2C1=O	inactive	inactive	inactive
CC(C)(C)NCc1ccsc1	inactive	inactive	inactive
[O-]/[N+](=N\O[C@@H]1O[C@H](CO)[C@@H](O)[C@H](O)[C@H]1O)N1CCCC1	inactive	inactive	inactive
COc1ccc(NC(=O)Nc2ccc3c(c2)C(=O)N([C@@H](C)CO)C[C@@H](C)[C@@H](CN(C)Cc2ccc(C(F)(F)F)cc2)OCCCC[C@H](C)O3)cc1	inactive	active	inactive
CN1CCN(C(=O)C[C@@H]2C=C[C@@H](NC(=O)Nc3ccccc3F)[C@H](CO)O2)CC1	inactive	inactive	inactive
COc1ccc(NC(=O)N(C)C[C@@H]2OCCCC[C@@H](C)Oc3ccc(NC(=O)Nc4ccc(C(F)(F)F)cc4)cc3C(=O)N([C@H](C)CO)C[C@H]2C)cc1	inactive	inactive	inactive
Cc1noc(C)c1NC(=O)Nc1ccc2c(c1)C(=O)N([C@@H](C)CO)C[C@@H](C)[C@H](CN(C)C(=O)Nc1ccccc1)OCCCC[C@H](C)O2	inactive	inactive	inactive
C[C@@H]1CN([C@H](C)CO)C(=O)c2cc(NC(=O)Cn3cnnn3)ccc2O[C@H]1CN(C)S(=O)(=O)c1ccccc1	inactive	inactive	inactive
C[C@H]1CN([C@@H](C)CO)C(=O)Cc2cc(NS(=O)(=O)c3ccccc3)ccc2O[C@H]1CN(C)S(C)(=O)=O	inactive	inactive	inactive
Cc1cc(C(=O)Nc2cccc3c2O[C@@H](CN(C)S(=O)(=O)c2cccs2)[C@H](C)CN([C@H](C)CO)C3=O)n(C)n1	inactive	inactive	inactive
Nc1nc(=O)c2c([nH]1)CN(C(=O)[C@H]1CCOC1)CC2	inactive	inactive	inactive
CO[C@H]1CN(C)C(=O)c2cc(NS(=O)(=O)c3ccccc3)ccc2OC[C@H](C)N(C(=O)NC(C)C)C[C@H]1C	inactive	inactive	inactive
CC(C)NC(=O)Nc1ccc2c(c1)CC(=O)N([C@H](C)CO)C[C@H](C)[C@H](CN(C)Cc1ccc(-c3ccccc3)cc1)O2	inactive	inactive	inactive
C[C@H]1CN([C@@H](C)CO)C(=O)c2cc(NS(=O)(=O)c3ccccc3)ccc2O[C@@H]1CN(C)S(=O)(=O)c1ccccc1	inactive	inactive	inactive
CC(C)C[C@@H](N)C(=O)N[C@H]1C(=O)N[C@@H](CC(N)=O)C(=O)N[C@H]2C(=O)N[C@H]3C(=O)N[C@H](C(=O)N[C@H](C(=O)O)c4cc(O)cc(O)c4-c4cc3ccc4O)[C@H](O)c3ccc(c(Cl)c3)Oc3cc2cc(c3O[C@@H]2O[C@H](CO)[C@@H](O)[C@H](O)[C@H]2O[C@H]2C[C@](C)(N)[C@H](O)[C@H](C)O2)Oc2ccc(cc2Cl)[C@H]1O	inactive	inactive	active
Cc1ccc(S(=O)(=O)N(c2cccc(-n3cc(CCC(=O)NO)nn3)c2)S(=O)(=O)c2ccc(C)cc2)cc1	active	active	active
CCCNC(=O)N1C[C@@H](O)COC[C@H]2O[C@@H](CC(=O)N3CCN(C)CC3)CC[C@@H]21	inactive	inactive	inactive
C[C@@H]1CCCCO[C@H](CN(C)C(=O)c2ccncc2)[C@H](C)CN([C@H](C)CO)C(=O)c2cc(NC(=O)C3CCCCC3)ccc2O1	inactive	inactive	inactive
COCC#Cc1ccc2c(c1)O[C@H](CN(C)Cc1ccc(F)cc1)[C@@H](C)CN([C@H](C)CO)S2(=O)=O	inactive	inactive	inactive
C[C@@H]1CN([C@@H](C)CO)C(=O)CCCn2cc(nn2)CO[C@@H]1CN(C)S(=O)(=O)c1ccc2ccccc2c1	inactive	inactive	inactive
